These are yes or no findings as the source states them, for the method shown. For some of these results: In cells and extracts the contact can be indirect. Some results given as binding are weak or reduced against the parent protein; the word gives no strength. Where a sequence is shown, tags or fusion partners need not be part of it.
Legend:
[1] = molecular target: T1, Days To Heading on chromosome 8 (DTH8), yeast two-hybrid fusion (rice (Oryza sativa)) (UniProt Q0J7P4); experiment: two-hybrid; 'preliminary yeast data', data not shown
T1 sequence: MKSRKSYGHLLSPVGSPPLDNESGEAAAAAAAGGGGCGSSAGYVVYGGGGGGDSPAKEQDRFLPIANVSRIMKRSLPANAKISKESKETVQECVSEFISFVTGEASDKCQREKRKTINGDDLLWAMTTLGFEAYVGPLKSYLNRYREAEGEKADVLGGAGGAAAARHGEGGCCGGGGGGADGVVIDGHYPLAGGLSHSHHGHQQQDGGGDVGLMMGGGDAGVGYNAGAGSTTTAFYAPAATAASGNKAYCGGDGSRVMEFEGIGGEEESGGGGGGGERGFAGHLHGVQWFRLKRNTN

Protein sequences, listed by entry. Tags and fused reporters are not part of them.
UniProt E5RQA1: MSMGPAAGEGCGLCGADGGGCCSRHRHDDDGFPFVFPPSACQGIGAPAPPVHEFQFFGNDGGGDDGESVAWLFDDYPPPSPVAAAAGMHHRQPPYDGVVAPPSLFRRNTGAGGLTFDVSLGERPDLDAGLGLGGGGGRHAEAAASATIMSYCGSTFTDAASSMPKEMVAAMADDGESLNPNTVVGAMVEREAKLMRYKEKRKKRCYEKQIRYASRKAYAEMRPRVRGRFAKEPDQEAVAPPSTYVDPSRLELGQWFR

[2] = molecular target: T1, Days To Heading on chromosome 8 (DTH8), yeast two-hybrid fusion (rice (Oryza sativa)); experiment: two-hybrid; pairwise; pGBKT7 baits and pGADT7 preys co-transformed into S. cerevisiae AH109; growth on Synthetic Dropout/-Trp-Leu-His-Ade at 30°C
[3] = molecular target: T2, GST-tagged DTH8 (rice (Oryza sativa)), Q0J7P4; experiment: pull-down; GST pull-down; E. coli BL21 lysates of the two proteins mixed in 25 mM Tris-HCl pH 7.5, 150 mM NaCl, 1 mM DTT, glutathione agarose beads overnight at 4°C; washes with 1% Triton X100 and 0.1% SDS; blots with anti-GST and anti-MBP; settings: remark: other sources report otherwise
T2 chain: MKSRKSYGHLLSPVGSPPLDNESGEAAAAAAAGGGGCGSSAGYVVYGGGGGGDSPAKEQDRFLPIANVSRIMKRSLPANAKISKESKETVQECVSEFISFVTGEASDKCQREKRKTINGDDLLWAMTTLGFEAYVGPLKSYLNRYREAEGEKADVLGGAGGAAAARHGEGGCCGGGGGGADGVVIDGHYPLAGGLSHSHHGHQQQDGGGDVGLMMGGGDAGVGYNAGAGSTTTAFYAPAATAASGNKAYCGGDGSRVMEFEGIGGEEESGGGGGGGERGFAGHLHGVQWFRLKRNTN

[4] = molecular target: T3, pSPYNE173-DTH8 (BiFC fusion) (rice (Oryza sativa)), Q0J7P4; experiment: split reporter; BiFC; YFPC (pSPYCE(M)) and YFPN (pSPYNE173) fusions, Agrobacterium GV3101 infiltration of N. benthamiana leaves, imaged 3 days after infiltration; settings: remark: other sources report otherwise
T3 chain: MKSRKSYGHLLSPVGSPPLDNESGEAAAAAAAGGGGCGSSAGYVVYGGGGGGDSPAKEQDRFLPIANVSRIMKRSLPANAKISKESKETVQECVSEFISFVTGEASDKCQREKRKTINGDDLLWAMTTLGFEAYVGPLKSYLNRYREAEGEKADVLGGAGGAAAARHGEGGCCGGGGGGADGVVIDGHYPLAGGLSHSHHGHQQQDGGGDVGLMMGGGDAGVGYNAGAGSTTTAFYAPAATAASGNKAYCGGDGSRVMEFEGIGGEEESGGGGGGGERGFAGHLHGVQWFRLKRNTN

[5] = molecular target: T4, Hd1 of the histidine pull-down (Fig. 8) (rice (Oryza sativa)), Q9FDX8; experiment: pull-down; histidine pull-down of the three recombinant proteins OsHAPL1, DTH8 and Hd1 from E. coli; Hd1 as bait; settings: remark: other sources report otherwise
T4 chain: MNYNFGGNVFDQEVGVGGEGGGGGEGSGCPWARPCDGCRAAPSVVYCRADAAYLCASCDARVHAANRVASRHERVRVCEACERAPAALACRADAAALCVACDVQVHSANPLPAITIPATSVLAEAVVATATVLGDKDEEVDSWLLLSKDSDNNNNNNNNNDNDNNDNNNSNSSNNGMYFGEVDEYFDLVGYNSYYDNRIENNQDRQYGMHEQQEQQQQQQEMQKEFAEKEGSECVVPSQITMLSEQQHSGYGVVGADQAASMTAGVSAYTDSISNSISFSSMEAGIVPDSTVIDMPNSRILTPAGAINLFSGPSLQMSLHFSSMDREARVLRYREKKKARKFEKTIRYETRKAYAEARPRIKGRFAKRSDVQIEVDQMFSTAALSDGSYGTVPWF

Grain number, plant height and heading date 7 (Ghd7), yeast fusion (from UniProt E5RQA1 1-257)
binding [1]: binds

B1: HAP3C (protein, UniProt Q65XK1 1-143)
chain: MSEGFDGTENGGGGGGGGVGKEQDRFLPIANIGRIMRRAVPENGKIAKDSKESVQECVSEFISFITSEASDKCLKEKRKTINGDDLIWSMGTLGFEDYVEPLKLYLRLYRETEGDTKGSRASELPVKKDVVLNGDPGSSFEGM
binding [2]: binds

B2: Days To Heading on chromosome 8 (DTH8), yeast two-hybrid fusion (protein, UniProt Q0J7P4 1-297)
chain: MKSRKSYGHLLSPVGSPPLDNESGEAAAAAAAGGGGCGSSAGYVVYGGGGGGDSPAKEQDRFLPIANVSRIMKRSLPANAKISKESKETVQECVSEFISFVTGEASDKCQREKRKTINGDDLLWAMTTLGFEAYVGPLKSYLNRYREAEGEKADVLGGAGGAAAARHGEGGCCGGGGGGADGVVIDGHYPLAGGLSHSHHGHQQQDGGGDVGLMMGGGDAGVGYNAGAGSTTTAFYAPAATAASGNKAYCGGDGSRVMEFEGIGGEEESGGGGGGGERGFAGHLHGVQWFRLKRNTN
binding [2]: binds

B3: Hd1, recombinant, of the GST pull-down (Fig. 7B), Q9FDX8 1-395 (protein)
chain: MNYNFGGNVFDQEVGVGGEGGGGGEGSGCPWARPCDGCRAAPSVVYCRADAAYLCASCDARVHAANRVASRHERVRVCEACERAPAALACRADAAALCVACDVQVHSANPLPAITIPATSVLAEAVVATATVLGDKDEEVDSWLLLSKDSDNNNNNNNNNDNDNNDNNNSNSSNNGMYFGEVDEYFDLVGYNSYYDNRIENNQDRQYGMHEQQEQQQQQQEMQKEFAEKEGSECVVPSQITMLSEQQHSGYGVVGADQAASMTAGVSAYTDSISNSISFSSMEAGIVPDSTVIDMPNSRILTPAGAINLFSGPSLQMSLHFSSMDREARVLRYREKKKARKFEKTIRYETRKAYAEARPRIKGRFAKRSDVQIEVDQMFSTAALSDGSYGTVPWF
binding [3]: binds

B4: Hd1 BiFC fusion, Q9FDX8 1-395 (protein)
chain: MNYNFGGNVFDQEVGVGGEGGGGGEGSGCPWARPCDGCRAAPSVVYCRADAAYLCASCDARVHAANRVASRHERVRVCEACERAPAALACRADAAALCVACDVQVHSANPLPAITIPATSVLAEAVVATATVLGDKDEEVDSWLLLSKDSDNNNNNNNNNDNDNNDNNNSNSSNNGMYFGEVDEYFDLVGYNSYYDNRIENNQDRQYGMHEQQEQQQQQQEMQKEFAEKEGSECVVPSQITMLSEQQHSGYGVVGADQAASMTAGVSAYTDSISNSISFSSMEAGIVPDSTVIDMPNSRILTPAGAINLFSGPSLQMSLHFSSMDREARVLRYREKKKARKFEKTIRYETRKAYAEARPRIKGRFAKRSDVQIEVDQMFSTAALSDGSYGTVPWF
binding [4]: binds

B5: GST-tagged DTH8, Q0J7P4 1-297 (protein)
chain: MKSRKSYGHLLSPVGSPPLDNESGEAAAAAAAGGGGCGSSAGYVVYGGGGGGDSPAKEQDRFLPIANVSRIMKRSLPANAKISKESKETVQECVSEFISFVTGEASDKCQREKRKTINGDDLLWAMTTLGFEAYVGPLKSYLNRYREAEGEKADVLGGAGGAAAARHGEGGCCGGGGGGADGVVIDGHYPLAGGLSHSHHGHQQQDGGGDVGLMMGGGDAGVGYNAGAGSTTTAFYAPAATAASGNKAYCGGDGSRVMEFEGIGGEEESGGGGGGGERGFAGHLHGVQWFRLKRNTN
binding [5]: binds

B6: TFIIB (protein, UniProt Q8W0W3 1-312)
chain: MSDSFCPDCKKHTEVAFDHSAGDTVCTECGLVLEAHSVDETSEWRTFANESSDNDPVRVGGPTNPLLTDGGLSTVIAKPNGAQGEFLSSSLGRWQNRGSNPDRSLILAFRTIANMADRLGLVATIKDRANEIYKKVEDLKSIRGRNQDAILAACLYIACRQEDRPRTVKEICSVANGATKKEIGRAKEFIVKQLEVEMGQSMEMGTIHAGDFLRRFCSTLGMNNQAVKAAQEAVQRSEELDIRRSPISIAAAVIYMITQLSDDKKPLKDISLATGVAEGTIRNSYKDLYPYASRLIPNTYAKEEDLKNLCTP
binding [2]: no binding

Reference: PMC6055584
